According to publication PMC4336329 (PLoS ONE, 2015):
Screen size: about 310,000 compounds; about 14,000 (4.5%) showed an effect of 50% or more. Effects have a minus sign here. The list shows a part of the results.

target: human ether-à-go-go-related gene (hERG) potassium channel (human, UniProt Q12809); test: primary screen, population patch clamp on CHO cells stably expressing hERG
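Also: peak tail current of the secondary pulse compared with the same well before compound.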

human ether-à-go-go-related gene (hERG) potassium channel, sequence (Q12809 whole entry, looked up): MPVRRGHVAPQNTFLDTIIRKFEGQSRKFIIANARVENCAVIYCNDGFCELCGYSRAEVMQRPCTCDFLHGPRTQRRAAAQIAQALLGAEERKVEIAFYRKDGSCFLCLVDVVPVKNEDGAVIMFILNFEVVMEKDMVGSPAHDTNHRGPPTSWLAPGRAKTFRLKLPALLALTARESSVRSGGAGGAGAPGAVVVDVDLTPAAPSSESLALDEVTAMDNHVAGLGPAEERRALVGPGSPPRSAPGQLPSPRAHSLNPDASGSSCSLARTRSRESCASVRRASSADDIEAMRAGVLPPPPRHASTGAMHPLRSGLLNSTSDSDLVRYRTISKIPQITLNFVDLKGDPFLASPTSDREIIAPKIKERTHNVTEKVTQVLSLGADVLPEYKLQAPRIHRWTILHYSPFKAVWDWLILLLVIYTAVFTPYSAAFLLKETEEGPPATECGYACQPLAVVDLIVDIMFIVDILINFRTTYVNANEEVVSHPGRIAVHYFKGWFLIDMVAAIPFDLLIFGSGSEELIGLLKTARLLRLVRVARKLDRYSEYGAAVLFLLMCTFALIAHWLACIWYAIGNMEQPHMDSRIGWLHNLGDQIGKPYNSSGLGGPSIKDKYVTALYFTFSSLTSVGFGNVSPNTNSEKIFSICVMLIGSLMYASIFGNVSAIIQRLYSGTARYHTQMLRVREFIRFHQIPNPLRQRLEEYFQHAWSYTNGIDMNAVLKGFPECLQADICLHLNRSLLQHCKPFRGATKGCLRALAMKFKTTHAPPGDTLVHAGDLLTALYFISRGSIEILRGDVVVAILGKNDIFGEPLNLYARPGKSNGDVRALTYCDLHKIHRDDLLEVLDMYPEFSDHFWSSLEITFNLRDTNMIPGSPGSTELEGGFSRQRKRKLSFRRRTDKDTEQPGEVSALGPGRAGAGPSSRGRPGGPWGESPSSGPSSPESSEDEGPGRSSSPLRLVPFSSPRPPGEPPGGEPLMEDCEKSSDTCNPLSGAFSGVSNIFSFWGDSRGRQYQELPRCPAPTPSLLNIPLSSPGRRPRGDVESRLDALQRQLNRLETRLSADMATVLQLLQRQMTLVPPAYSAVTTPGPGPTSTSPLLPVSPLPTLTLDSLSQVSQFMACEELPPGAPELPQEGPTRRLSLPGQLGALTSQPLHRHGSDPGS

| Compound | hERG current change (%, negative = inhibition) at 10uM |
| --- | --- |
| Cc1cccc(-n2c(C)nc3ccccc3c2=O)n1 | -4.26% |
| O=C(c1ccccc1)c1cn(CC(=O)N2CCOCC2)c2ccccc12 | -0.668% |
| COc1ccc(C(=S)N2CCOCC2)cc1OC(=O)c1ccccc1Cl | 5.98% |
| CCOC(=O)C(C)C1(O)c2ccccc2-c2ncccc21 (stereo not drawn) | -14.6% |
| Cc1ccc(SCCOCCN2CCOCC2)cc1.Cl | -1.55% |
| CC(Oc1ccccc1F)C(=O)Nc1ccc2ccccc2c1 (stereo not drawn) | 8.86% |
| O=C(O)CC1SC(=O)NC1=O (stereo not drawn) | 4.76% |
| COc1ccc(C(=O)NNC2=CC(=O)CC(C)(C)C2)cc1OC | 14.6% |
| O=C1CCC(=O)N1c1ccc(CSc2nc3ccccc3[nH]2)cc1 | 7.12% |
| Cc1ccc(C)c(N2CCN(C(=O)C3CCCN(S(=O)(=O)c4c(C)[nH]c(=O)[nH]c4=O)C3)CC2)c1 (stereo not drawn) | -3.67% |
| Cc1ccc(-n2nc3ccc(N)cc3n2)cc1 | -2.95% |
| NNC(=O)C1CC(O)CN1S(=O)(=O)c1ccc(Cl)cc1 (stereo not drawn) | 12.8% |
| CSc1nnc(C)c(/C=C/Nc2ccc(F)cc2F)n1 | 3.78% |
| O=C(NCc1ccccn1)c1ccc(Cl)cc1Cl | -10.8% |
| COC(=O)CC1C(=O)NCCN1C(=O)c1ccc(Cl)cc1 (stereo not drawn) | 17% |
| Cc1ccc(-c2csc(CC(N)=O)n2)cc1 | 13% |
| COc1ccc(OC)c(NC(=O)c2cccc(S(=O)(=O)N3CCN(C(C)=O)CC3)c2)c1 | -7.13% |
| CCCCn1c(N)c(N(CCOC)C(=O)COC(=O)c2ccccc2OCC)c(=O)[nH]c1=O | 16.3% |
| Cc1nn(-c2ccccc2)c(C)c1/C=N/NC(=O)c1cc(C23CC4CC(CC(C4)C2)C3)[nH]n1 | 4.5% |

| Compound | hERG current change (%, negative = inhibition) at 10uM |
| --- | --- |
| COC(=O)c1c(NC(=O)C2CCCCC2)sc2c1CC(C)(C)NC2(C)C | -17.7% |
| CN(C)c1nc(N)nc(CSc2n[nH]c(-c3ccccc3)n2)n1 | -8.58% |
| Cc1ccc(-c2[nH]ncc2CN2CCN(C(=O)c3cccs3)CC2)cc1C | -62.5% |
| Cc1cccnc1NC(=O)c1sc2ccccc2c1Cl | 2.5% |
| O=C(c1ccccc1F)N(Cc1cccs1)C1CCS(=O)(=O)C1 (stereo not drawn) | 21.9% |
| Cc1ccc(C(=O)NNC(=O)c2nn(-c3ccc(F)cc3)ccc2=O)cc1 | -19.7% |
| O=C1[C@H]2[C@@H](c3ccc(F)cc3)N3C(=O)N(c4cccc(F)c4)C(=O)[C@@]3(Cc3ccccc3)[C@H]2C(=O)N1C1CCCCC1 | 24.2% |
| Cc1ccc(CNS(=O)(=O)c2ccc(C(C)(C)C)cc2)n1C | 2.63% |
| NC(=S)NNC(=O)Nc1ccc(Cl)c(Cl)c1 | 23.5% |
| Cn1cc(S(=O)(=O)NCc2ccc(Cl)cc2)c(=O)n(C)c1=O | 4.54% |
| Cc1cc(OCc2cc(C(=O)N(C)CC3CCOCC3)no2)cc(C)c1Cl | -69% |
| C=CCc1ccc(OCCOCCN(C)C)c(OC)c1.O=C(O)C(=O)O | -27.5% |
| COC(=O)[C@H](C(C)C)n1c(C)c(C(C)=O)c(C(C)=O)c1C | 12.6% |
| c1ccc(NC2=NCCN2CC2CCCC2)cc1 | 15.8% |
| Brc1ccccc1CNCCc1ccc2c(c1)OCO2 | 0.404% |
| Cc1ccc2nc(C)c3c(c2c1)N(c1ccc(F)cc1)CC3 | -92.2% |
| O=C(COC(=O)c1ncc(Cl)c(Cl)c1Cl)NCc1cccs1 | 6.8% |
| FC(F)(F)c1cc(-c2cccs2)nc(-n2cc(Br)cn2)n1 | -11.2% |
| C[C@@]12CCC=C[C@H]1[C@H](c1ccc(F)c(/C=C/c3ccccc3)c1)N(Cc1ccccc1)C2=O | 9.05% |

| Compound | hERG current change (%, negative = inhibition) at 10uM |
| --- | --- |
| COc1ccc(-c2csc3ncn(CC(=O)N4CCOCC4)c(=O)c23)cc1 | 9.88% |
| O=C(COc1ccccc1-c1ccccc1)NCc1cccc(Cl)c1 | 14.9% |
| CCCCCC(=O)c1c(C)[nH]c(C(=O)OCC)c1C | -1.63% |
| NS(=O)(=O)c1ccc(NC(=S)NC(=O)c2ccc3c(c2)OCO3)cc1 | 27.6% |
| CCOC(=O)N1CCC(NC(=O)c2ccc3c(c2)N(C)CCS3)CC1 | -8.11% |
| Cc1onc(-c2c(F)cccc2Cl)c1C(=O)N1C=CC(C(F)(F)F)=NCC1 | 7.17% |
| CCNC(=S)N1CCN(S(=O)(=O)c2ccc(C)c(C)c2)CC1 | 8.91% |
| Nc1nnc(SCC(=O)Nc2ccc(N3CCOCC3)c(Cl)c2)s1 | -8.33% |
| CC(OC(=O)c1ccc2c(=O)n3c(nc2c1)CCCCC3)C(N)=O (stereo not drawn) | 22.5% |
| CC(=O)N1CCc2cc(Br)cc(S(=O)(=O)NCCN3CCCCC3C)c21 (stereo not drawn) | -6.34% |
| O=C(NCc1ccc2c(c1)OCO2)C1CCC(CNS(=O)(=O)c2cccc3nsnc23)CC1 (stereo not drawn) | 4.04% |
| COc1ccc(-n2c(SCC(=O)NCc3cccs3)nc3[nH]ncc3c2=O)cc1 | -23.9% |
| O=C(O)CNC(=O)/C(=C\c1ccc2c(c1)OCO2)NC(=O)c1ccc(Br)cc1 | 8.77% |
| Cc1ccc(S(=O)(=O)N2CCC(C(=O)N[C@@H](C)C(=O)NC3CCCCC3)CC2)cc1 | 13.9% |
| Cn1c(Cn2cnc3ccccc32)nnc1SCc1ccccc1 | -6.18% |
| CC1CCC2(CC1)NC(=O)N(CC(=O)Nc1sc3c(c1C(N)=O)CCC3)C2=O (stereo not drawn) | -3.32% |
| CS(=O)(=O)c1ccc2nc(NC(=O)CN3CCCCCC3)sc2c1.O=C(O)C(=O)O | 4.7% |
| O=C(N/N=C/c1ccc(O)cc1)c1cncc(Br)c1 | 2.52% |
| CC(C)C(C(=O)Nc1ccc2c(c1)OCO2)N1C(=O)c2ccccc2C1=O (stereo not drawn) | -29.6% |
